# Results published in PubChem BioAssay (NCATS).
# The shares of active, inactive and inconclusive entries below differ from those in the screen. For some of these results: Potencies of inconclusive entries are left out as doubtful fits. Calls of active or inactive are those of the source. The call rests on the fitted dose curve; in most records, active means well fitted curve in the direction sought with a large enough effect; inconclusive means small, poorly fitted or top-dose-only effect, or another doubt; inactive means no such curve, though single readings can be large; an effect the other way counts as inactive or inconclusive.
# What was measured:
# Furin (Homo sapiens) = Furin (Homo sapiens) (UniProt P09958); test: Furin counterscreen qHTS for Zika virus inhibitors (AID 1347149); settings: furin enzymatic counterscreen, fluorogenic substrate; activity change, negative = inhibition: at 114 µM (top of the series); further: nearly all actives have a fitted effect of over 70% in size; further: potency means the concentration at half of the fitted maximal effect;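 on activity change, negative = inhibition: purified recombinant full-length human furin enzyme at 5 nM; fluorescence gain from furin cutting a BOC-RVRR-AMC peptide substrate over 15 min; top concentration of the series differs between compounds; plate controls were no-inhibitor control for no effect and no-enzyme control for full effect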
# Method in brief: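 Counterscreen measures cleavage of 2 microM BOC-RVRR-AMC, below its ~15 microM Km, by 5 nM full-length human furin at pH 7.0 after a 15-min compound preincubation. Inhibition derives from the 15-min fluorescence increase at 37C.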
# [1] = Tertiary RLuc qRT-PCR qHTS assay for Zika virus inhibitors (AID 1347169); further: nearly all actives have a fitted effect of over 55% in size; further: potency means the concentration at half of the fitted maximal effect; on activity change, negative = inhibition: top concentration of the series differs between compounds; on the % scale 0 is the no-effect control and ±100 the full control effect
# Method in brief: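 Inhibition of ZIKV-RLuc replication in Vero cells, read as Renilla luminescence 1-1.5 hrs after live-cell substrate addition, following 48-72 hrs infection at MOI 1-2 in presence of compound.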
# [2] = Confirmatory screen NINDS Rhodamine qHTS for Zika virus inhibitors (AID 1347161); further: nearly all actives have a fitted effect of over 60% in size; further: potency means the concentration at half of the fitted maximal effect;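 on activity change, negative = inhibition: purified Zika NS2B-NS3 protease with linked NS2B cofactor domain and Rhodamine110 peptide substrate; plate controls were no-inhibitor control for no effect and no-enzyme control for full effect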
# Method in brief: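 Purified linked NS2B-NS3 protease (NS2B hydrophilic domain joined to NS3 protease by flexible linker), 25 nM in 10 mM Tris-HCl pH 8.0, 0.01% Tween 20. Compounds titrated, 15 min preincubation at room temperature; 1.5 microM Rhodamine110 substrate, FITC fluorescence change over 15 min.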
# [3] = ZIKV-mCherry secondary qHTS for Zika virus inhibitors (AID 1347158); settings: Vero cells, ZIKV-mCherry infection imaging, 48-72 h; activity change, negative = inhibition: at 49.2 µM (top of the series); further: potency means the concentration at half of the fitted maximal effect; on activity change, negative = inhibition: top concentration of the series differs between compounds
# Method in brief: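 This orthogonal imaging screen measured ZIKV-mCherry infection of Vero cells exposed to compound, MOI 1, 48-72 h. Percent infection came from segmented nuclei scored mCherry-positive above 3 SD of negative controls.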
# [4] = target: Endonuclease 4 (Escherichia coli (strain K12)) (UniProt P0A6C1); test: Counterscreen for APE1 Inhibitors: qHTS Assay for Inhibitors of Endonuclease IV (AID 2565); further: potency means the concentration at half of the fitted maximal effect
# Method in brief: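 Measured as reaction progress, the fluorescence gain between first and third kinetic reads after adding 50 nM TAMRA/BHQ-2 THF duplex to 2 nM enzyme preincubated 15 min with compound; 2 mM MgCl2, pH 7.5.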
# [5] = target: Ubiquitin carboxyl-terminal hydrolase 1 (Homo sapiens) (UniProt O94782); test: Inhibitors of USP1/UAF1: Pilot qHTS (AID 504865);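 further: rhodamine fluorescence freed from ubiquitin-rhodamine substrate followed over time; potency means the concentration at half of the fitted maximal effect; nearly all actives have a fitted effect of over 35% in size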
# Method in brief: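 Enzyme-free wells gave the negative control, while test wells held 1nM USP1/UAF1 preincubated with compound for 15 min at room temperature. Ub-Rho at 150nM final started the reaction, and fluorescence at 480/540 nm was recorded kinetically.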
# [6] = tested on: Zika virus NS2B-NS3 protease (linked construct); test: 384 well plate NINDS Rhodamine confirmatory qHTS for Zika virus inhibitors (AID 1347164); further: nearly all actives have a fitted effect of over 65% in size; further: potency means the concentration at half of the fitted maximal effect;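 on activity change, negative = inhibition: top concentration of the series differs between compounds; plate controls were no-inhibitor control for no effect and no-enzyme control for full effect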
# Method in brief: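 Cleavage of Ac-LKRR-Rhodamine 110 (10 microM final) by linked protease (final 5, 30 or 60 nM) was followed as fluorescence at 485/538 nm after 25 min, room temperature, dark. Compounds preincubated ~15 min.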
# [7] = target: Bifunctional 3'-5' exonuclease/ATP-dependent helicase WRN (Homo sapiens) (UniProt Q14191); test: qHTS for Inhibitors of WRN Helicase: Confirmatory Assay for Cherry-picked Compounds. (AID 720497); further: potency means the concentration at half of the fitted maximal effect; nearly all actives have a fitted effect of over 65% in size
# Method in brief: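 Compound and 20 nM WRN incubated 15 min, RT. Forked duplex (100 nM) plus ATP (2 mM) added. Fluorescence monitored kinetically and normalized to controls.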
# [8] = qHTS for Inhibitors of WRN Helicase: Thiazole Orange DNA Binding Counterscreen (AID 720499);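 further: drop in dye fluorescence marks compound binding to DNA; potency means the concentration at half of the fitted maximal effect; nearly all actives have a fitted effect of over 60% in size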
# Method in brief: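 To exclude WRN hits acting through DNA binding, fluorescence of 100 nM thiazole orange bound to 50 nM unlabeled DNA is read (ex 480, em 530 nm) 15 min after compound addition at room temperature.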
# [9] = target: N-terminal Xaa-Pro-Lys N-methyltransferase 1 (Homo sapiens) (UniProt Q9BV86); test: Confirmatory qHTS for Inhibitors of N-terminal methyltransferase 1 (NTMT1): MTaseGlo Assay (AID 1645874);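 further: luminescence from SAH made as NTMT1 methylates SPKRIA peptide using SAM; 0% = DMSO control and -100% = no-enzyme control; nearly all actives have a fitted effect of over 65% in size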
# Method in brief: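 SPKRIA peptide at 1 uM was methylated by 125 nM NTMT1 using 100 uM SAM over 30 min at room temperature, following a 15 min compound preincubation. Product SAH was detected luminescently.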
# [10] = target: Rap guanine nucleotide exchange factor 3 (Homo sapiens) (UniProt O95398); test: Confirmatory qHTS for antagonist of cAMP-regulated guanine nucleotide exchange factor 3 (EPAC1) (AID 1645880); settings: EPAC1 Rap1B-BODIPY-GDP exchange, fluorescence; activity, negative = inhibition: at 115 µM (top of the series); further: potency means the concentration at half of the fitted maximal effect; nearly all actives have a fitted effect of over 55% in size
# Method in brief: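 Released BODIPY-GDP fluoresces less than Rap1-bound BODIPY-GDP; the signal is followed at 480/540 nm at 5-min intervals over 30 min, after 5 min at room temperature. Reactions contain 100 nM EPAC1, 250 nM RAP1B-BODIPY-GDP and 50 uM GDP; results are normalized to ATA and DMSO.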
# [11] = target: Rap guanine nucleotide exchange factor 3 (Homo sapiens) (UniProt O95398); test: Confirmatory qHTS for agonist of cAMP-regulated guanine nucleotide exchange factor 3 (EPAC1) (AID 1645881); settings: EPAC1 Rap1B BODIPY-GDP exchange fluorescence; activation: at 154 µM (top of the series), 100% = cAMP control response; further: potency means the concentration at half of the fitted maximal effect; nearly all actives have a fitted effect of over 75% in size
# [12] = target: Rap guanine nucleotide exchange factor 3 (Homo sapiens) (UniProt O95398); test: Counterscreen qHTS for agonist of cAMP-regulated guanine nucleotide exchange factor 3 (EPAC1) (AID 1645889); settings: EPAC1 Rap1B-BODIPY-GDP exchange, fluorescence; activation: at 154 µM (top of the series) unless noted; further: potency means the concentration at half of the fitted maximal effect; nearly all actives have a fitted effect of over 40% in size
# Method in brief: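 Measured: fluorescence of BODIPY-GDP bound to Rap1B, which falls as exchange proceeds. Conditions include 50 uM competing GDP, 5 and 30 min reads, and a later cAMP challenge for antagonist detection.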
# [13] = target: Rap guanine nucleotide exchange factor 4 (Homo sapiens) (UniProt Q8WZA2); test: Confirmatory qHTS for agonist of cAMP-regulated guanine nucleotide exchange factor 4 (EPAC2) (AID 1645884); settings: EPAC2 GEF activity, Rap1B-BODIPY-GDP fluorescence; activation: at 154 µM (top of the series), percent relative to cAMP agonist control;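 further: nucleotide exchange releases bodipy-GDP from Rap1 and this lowers its fluorescence; potency means the concentration at half of the fitted maximal effect; nearly all actives have a fitted effect of over 65% in size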
# [14] = tested on: Zika virus NS2B-NS3 protease (linked); test: 384 well plate NINDS AMC confirmatory qHTS for Zika virus inhibitors (AID 1347163); further: potency means the concentration at half of the fitted maximal effect; nearly all actives have a fitted effect of over 50% in size
# Method in brief: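 Enzyme (5, 30 or 60 nM final) first met test compounds for ~15 min. The AMC-tagged peptide Ac-VKTGKR-AMC followed at 30 microM. Fluorescence was then recorded at 25 min and scaled against no-enzyme and no-inhibitor wells.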
# Tags describe the fitted curve by direction and shape.
# UniProt O95398, sequence (O95398 whole entry, looked up): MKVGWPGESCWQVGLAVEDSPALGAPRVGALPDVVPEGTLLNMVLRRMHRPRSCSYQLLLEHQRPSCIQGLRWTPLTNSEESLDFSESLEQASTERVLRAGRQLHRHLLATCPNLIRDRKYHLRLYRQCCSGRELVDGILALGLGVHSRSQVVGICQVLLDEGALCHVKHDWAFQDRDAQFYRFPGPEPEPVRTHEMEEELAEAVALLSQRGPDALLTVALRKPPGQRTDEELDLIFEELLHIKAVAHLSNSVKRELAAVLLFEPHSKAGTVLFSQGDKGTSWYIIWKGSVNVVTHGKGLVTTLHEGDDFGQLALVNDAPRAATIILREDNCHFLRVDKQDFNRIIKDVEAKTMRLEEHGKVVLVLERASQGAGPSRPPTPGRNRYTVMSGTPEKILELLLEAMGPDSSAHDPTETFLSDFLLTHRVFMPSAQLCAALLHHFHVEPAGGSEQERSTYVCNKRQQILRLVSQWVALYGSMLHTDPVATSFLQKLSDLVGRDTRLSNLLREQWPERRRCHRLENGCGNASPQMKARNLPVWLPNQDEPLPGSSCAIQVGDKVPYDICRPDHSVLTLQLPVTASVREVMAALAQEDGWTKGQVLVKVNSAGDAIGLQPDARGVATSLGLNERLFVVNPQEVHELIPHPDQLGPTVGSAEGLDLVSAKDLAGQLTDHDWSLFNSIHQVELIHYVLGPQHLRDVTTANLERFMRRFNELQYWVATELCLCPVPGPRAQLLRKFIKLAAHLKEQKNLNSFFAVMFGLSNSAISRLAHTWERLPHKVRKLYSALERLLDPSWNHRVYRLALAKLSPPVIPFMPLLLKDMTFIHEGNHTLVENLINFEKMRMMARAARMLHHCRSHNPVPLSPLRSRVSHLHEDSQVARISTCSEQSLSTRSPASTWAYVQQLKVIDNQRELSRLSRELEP
# UniProt P09958, sequence (P09958 whole entry, looked up): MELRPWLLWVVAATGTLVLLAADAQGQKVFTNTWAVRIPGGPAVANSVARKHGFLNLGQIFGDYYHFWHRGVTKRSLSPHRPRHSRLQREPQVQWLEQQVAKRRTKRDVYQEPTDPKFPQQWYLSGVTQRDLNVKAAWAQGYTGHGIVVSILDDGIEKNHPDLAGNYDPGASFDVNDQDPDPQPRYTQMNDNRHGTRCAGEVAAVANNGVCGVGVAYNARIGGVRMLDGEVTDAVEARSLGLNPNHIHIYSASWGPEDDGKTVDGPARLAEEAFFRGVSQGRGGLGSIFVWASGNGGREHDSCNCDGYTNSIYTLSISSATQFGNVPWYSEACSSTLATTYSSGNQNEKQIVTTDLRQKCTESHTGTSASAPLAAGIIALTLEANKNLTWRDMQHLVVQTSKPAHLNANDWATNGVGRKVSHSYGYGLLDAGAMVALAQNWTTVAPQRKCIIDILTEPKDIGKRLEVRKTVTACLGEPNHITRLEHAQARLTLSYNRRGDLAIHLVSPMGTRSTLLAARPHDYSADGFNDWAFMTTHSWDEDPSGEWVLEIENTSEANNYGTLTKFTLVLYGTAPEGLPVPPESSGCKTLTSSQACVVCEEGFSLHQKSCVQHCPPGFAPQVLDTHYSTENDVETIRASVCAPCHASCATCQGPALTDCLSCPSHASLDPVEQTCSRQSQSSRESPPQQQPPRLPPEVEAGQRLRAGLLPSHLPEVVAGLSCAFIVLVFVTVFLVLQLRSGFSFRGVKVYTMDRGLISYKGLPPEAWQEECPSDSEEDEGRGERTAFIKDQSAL
# UniProt O94782, sequence (O94782 whole entry, looked up): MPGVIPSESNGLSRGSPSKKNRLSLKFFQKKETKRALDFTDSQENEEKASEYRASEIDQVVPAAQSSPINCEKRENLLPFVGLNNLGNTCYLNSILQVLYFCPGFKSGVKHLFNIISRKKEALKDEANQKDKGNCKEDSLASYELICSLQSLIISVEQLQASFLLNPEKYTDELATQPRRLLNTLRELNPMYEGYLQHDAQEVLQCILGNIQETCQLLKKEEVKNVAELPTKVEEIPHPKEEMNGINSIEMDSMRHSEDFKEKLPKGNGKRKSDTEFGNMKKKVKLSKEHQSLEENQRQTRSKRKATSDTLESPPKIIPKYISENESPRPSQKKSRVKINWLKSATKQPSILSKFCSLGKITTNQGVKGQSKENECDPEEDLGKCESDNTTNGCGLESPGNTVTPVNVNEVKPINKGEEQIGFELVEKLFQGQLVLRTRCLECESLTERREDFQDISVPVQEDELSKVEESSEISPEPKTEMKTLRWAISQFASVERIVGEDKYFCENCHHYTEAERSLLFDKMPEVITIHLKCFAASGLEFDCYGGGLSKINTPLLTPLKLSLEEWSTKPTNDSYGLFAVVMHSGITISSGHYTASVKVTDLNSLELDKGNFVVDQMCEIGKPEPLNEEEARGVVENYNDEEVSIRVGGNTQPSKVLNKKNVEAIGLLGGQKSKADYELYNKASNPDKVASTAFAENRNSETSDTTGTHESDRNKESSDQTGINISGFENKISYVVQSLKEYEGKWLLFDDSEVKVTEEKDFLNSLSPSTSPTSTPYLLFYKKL
# UniProt Q14191, sequence (Q14191 whole entry, looked up): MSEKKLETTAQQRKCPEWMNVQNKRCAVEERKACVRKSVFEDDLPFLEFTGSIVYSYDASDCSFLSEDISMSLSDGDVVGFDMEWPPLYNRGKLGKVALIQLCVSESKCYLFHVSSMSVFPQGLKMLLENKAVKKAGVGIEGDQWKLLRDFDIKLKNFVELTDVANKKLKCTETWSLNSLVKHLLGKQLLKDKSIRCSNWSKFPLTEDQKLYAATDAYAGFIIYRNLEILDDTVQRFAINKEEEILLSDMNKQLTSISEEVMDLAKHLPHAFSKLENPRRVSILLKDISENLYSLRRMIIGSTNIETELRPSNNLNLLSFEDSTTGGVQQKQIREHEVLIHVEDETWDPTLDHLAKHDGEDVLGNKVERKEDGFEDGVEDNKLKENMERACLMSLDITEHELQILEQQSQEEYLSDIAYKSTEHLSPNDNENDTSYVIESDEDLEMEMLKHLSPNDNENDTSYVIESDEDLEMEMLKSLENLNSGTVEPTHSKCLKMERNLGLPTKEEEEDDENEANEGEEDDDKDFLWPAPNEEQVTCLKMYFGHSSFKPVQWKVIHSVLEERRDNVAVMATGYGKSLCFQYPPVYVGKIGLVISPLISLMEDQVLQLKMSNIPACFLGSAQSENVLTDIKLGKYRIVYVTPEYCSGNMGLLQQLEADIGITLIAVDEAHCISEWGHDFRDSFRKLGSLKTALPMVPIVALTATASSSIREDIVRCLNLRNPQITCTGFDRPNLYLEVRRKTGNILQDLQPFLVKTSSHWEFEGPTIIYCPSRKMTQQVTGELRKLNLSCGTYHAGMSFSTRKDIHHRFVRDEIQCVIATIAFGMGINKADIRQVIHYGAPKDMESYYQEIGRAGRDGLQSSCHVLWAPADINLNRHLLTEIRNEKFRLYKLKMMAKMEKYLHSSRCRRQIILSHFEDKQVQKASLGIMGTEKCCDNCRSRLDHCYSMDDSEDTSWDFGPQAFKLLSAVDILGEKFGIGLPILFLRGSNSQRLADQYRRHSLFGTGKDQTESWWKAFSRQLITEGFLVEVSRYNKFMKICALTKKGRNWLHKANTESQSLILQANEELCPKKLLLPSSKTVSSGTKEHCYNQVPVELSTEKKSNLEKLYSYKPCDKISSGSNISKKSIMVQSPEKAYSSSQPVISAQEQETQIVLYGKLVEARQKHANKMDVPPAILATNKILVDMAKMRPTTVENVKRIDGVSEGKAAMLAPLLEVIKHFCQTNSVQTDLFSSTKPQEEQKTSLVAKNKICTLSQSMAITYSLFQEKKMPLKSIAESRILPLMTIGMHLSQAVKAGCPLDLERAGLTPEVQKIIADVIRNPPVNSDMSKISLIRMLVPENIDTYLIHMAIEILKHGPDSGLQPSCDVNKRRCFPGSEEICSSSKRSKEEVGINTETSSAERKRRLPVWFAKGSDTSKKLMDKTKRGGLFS
# UniProt Q8WZA2, sequence (Q8WZA2 whole entry, looked up): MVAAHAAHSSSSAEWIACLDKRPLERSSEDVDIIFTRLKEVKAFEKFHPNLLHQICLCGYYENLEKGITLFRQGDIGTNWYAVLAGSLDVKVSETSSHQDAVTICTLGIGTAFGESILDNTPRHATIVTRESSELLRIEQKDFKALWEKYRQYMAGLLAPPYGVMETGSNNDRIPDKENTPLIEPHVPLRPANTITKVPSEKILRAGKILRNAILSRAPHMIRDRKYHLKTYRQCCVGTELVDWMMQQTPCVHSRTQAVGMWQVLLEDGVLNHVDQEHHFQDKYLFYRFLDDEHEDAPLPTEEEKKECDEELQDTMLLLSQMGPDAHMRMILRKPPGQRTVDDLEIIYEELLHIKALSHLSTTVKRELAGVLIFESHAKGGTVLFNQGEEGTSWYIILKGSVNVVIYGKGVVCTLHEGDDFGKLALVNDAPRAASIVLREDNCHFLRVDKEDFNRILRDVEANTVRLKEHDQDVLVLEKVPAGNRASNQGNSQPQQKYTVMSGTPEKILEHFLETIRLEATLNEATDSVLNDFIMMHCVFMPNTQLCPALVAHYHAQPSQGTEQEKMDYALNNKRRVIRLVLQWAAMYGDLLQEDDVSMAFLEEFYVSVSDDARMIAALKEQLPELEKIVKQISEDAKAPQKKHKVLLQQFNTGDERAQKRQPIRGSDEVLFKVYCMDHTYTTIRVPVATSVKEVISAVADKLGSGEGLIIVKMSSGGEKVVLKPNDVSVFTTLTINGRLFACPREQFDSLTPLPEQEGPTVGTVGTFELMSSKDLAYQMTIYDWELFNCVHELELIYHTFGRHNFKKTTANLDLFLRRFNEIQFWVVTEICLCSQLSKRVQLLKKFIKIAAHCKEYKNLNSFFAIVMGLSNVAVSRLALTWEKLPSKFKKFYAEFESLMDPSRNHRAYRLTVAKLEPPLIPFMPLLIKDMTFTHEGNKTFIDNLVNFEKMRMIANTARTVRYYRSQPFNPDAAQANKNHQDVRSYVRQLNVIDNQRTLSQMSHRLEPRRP
smiles,measurement,setting,value
CCOC(=O)c1c(-c2ccccc2)oc2ccc(NS(=O)(=O)c3ccc(C(C)C)cc3)cc12,Potency,Furin (Homo sapiens),active: 46.9 µM
same,Potency,[1],"inconclusive [inhibitor, single point]"
Cc1ccc(C(=O)Nc2ccc(C(=O)OCc3cc(=O)n4c5c(sc4n3)CCCC5)cc2)cc1,Potency,Furin (Homo sapiens),active: 41.8 µM
same,Potency,[2],"inconclusive [inhibitor, partial curve]"
same,Potency,[1],"inconclusive [inhibitor, partial curve, poor fit]"
O=C(CSc1nnc(-c2cccc([S+](=O)([O-])NC3CCCC3)c2)n1-c1ccccc1)Nc1ccc(C(=O)O)cc1,Potency,Furin (Homo sapiens),inactive
same,Potency,[2],"inconclusive [inhibitor, partial curve, poor fit]"
O=C(OCC#CCSc1nnc(-c2cccc3ccccc23)o1)c1ccc(OC(F)F)cc1,Potency,Furin (Homo sapiens),active: 41.8 µM
same,Potency,[1],"inconclusive [inhibitor, full curve, poor fit]"
Nc1c(N=Nc2ccc([N+](=O)[O-])cc2)c(S(=O)(=O)O)cc2cc(S(=O)(=O)O)c(/C=C/c3ccccc3)c(O)c12,Potency,Furin (Homo sapiens),"inconclusive [inhibitor, single point]"
same,Potency,[3],"inconclusive [inhibitor, partial curve, poor fit]"
same,Potency,[1],"inconclusive [inhibitor, partial curve, poor fit]"
O=C1c2ccc(O)c(O)c2C(=O)c2c(O)ccc(O)c21,Potency,[4],active: 14.1 µM
same,Potency,[5],active: 79.4 µM
same,Potency,Furin (Homo sapiens),"inconclusive [inhibitor, full curve]"
same,Potency,[6],inactive
same,Potency,[1],"inconclusive [inhibitor, partial curve, poor fit]"
O=C(CNC(=O)c1ccccc1F)OCc1cc(=O)n2nc(C3CCCCC3)sc2n1,Potency,Furin (Homo sapiens),"inconclusive [inhibitor, single point]"
same,Potency,[2],inactive
same,"activity change, negative = inhibition",[1],inactive: -7.02% [at 1.74 µM]
N#C/C(=C\c1ccc(-c2ccc(Cl)c(C(=O)O)c2)o1)c1nc2ccccc2[nH]1,Potency,[7],active: 19.2 µM
same,Potency,[8],"inconclusive [inhibitor, single point]"
same,Potency,Furin (Homo sapiens),inactive
same,Potency,[3],inactive
same,Potency,[6],"inconclusive [inhibitor, partial curve, poor fit]"
same,Potency,[9],inactive
same,Potency,[10],"inconclusive [inhibitor, partial curve, poor fit]"
same,Potency,[11],"inconclusive [activator, single point]"
same,Potency,[12],active: 79.4 µM
O=S(=O)(N[C@H]1CO[C@H]2[C@@H]1OC[C@@H]2n1nnnc1-c1ccc2c(c1)OCO2)c1ccc2ccccc2c1,Potency,Furin (Homo sapiens),"inconclusive [inhibitor, single point]"
same,Potency,[1],inactive
NC(Cc1cc(I)c(Oc2ccc(O)c(I)c2)c(I)c1)C(=O)O (stereo not given),Potency,Furin (Homo sapiens),inactive
same,Potency,[2],"inconclusive [inhibitor, partial curve, poor fit]"
same,"activity change, negative = inhibition",[1],inactive: 45.7% [at 1.74 µM]
O=C(Nc1ccccc1C(=O)OCc1cc(=O)n2c3c(sc2n1)CCCC3)c1ccc(Cl)cc1,Potency,Furin (Homo sapiens),"inconclusive [inhibitor, partial curve, poor fit]"
same,Potency,[2],"inconclusive [inhibitor, partial curve, poor fit]"
O=C(O)c1ccccc1-c1c2cc(I)c(=O)c(I)c-2oc2c(I)c(O)c(I)cc12,Potency,Furin (Homo sapiens),"inconclusive [inhibitor, partial curve]"
same,Potency,[6],inactive
same,Potency,[1],inactive
same,Potency,[11],"inconclusive [activator, partial curve, poor fit]"
same,Potency,[13],"inconclusive [activator, partial curve, poor fit]"
same,Potency,[12],active: 7.08 µM
COc1ccc(OC)c(Nc2sc(C(=O)c3ccccc3)c(N)c2S(=O)(=O)c2ccccc2)c1,Potency,Furin (Homo sapiens),"inconclusive [inhibitor, partial curve, poor fit]"
same,Potency,[2],inactive
O=C(Nc1cccc(C(=O)OCc2cc(=O)n3nc(C4CC4)sc3n2)c1)c1cccc(Cl)c1,Potency,Furin (Homo sapiens),"inconclusive [inhibitor, single point]"
same,Potency,[2],"inconclusive [inhibitor, partial curve]"
same,Potency,[14],"inconclusive [inhibitor, single point]"
same,Potency,[6],"inconclusive [inhibitor, full curve, poor fit]"
same,Potency,[1],"inconclusive [inhibitor, partial curve, poor fit]"
O=C(O)c1ccc(C2Nc3ccccc3-c3nnc(SCc4ccc(Cl)cc4)nc3O2)cc1 (stereo not given),Potency,Furin (Homo sapiens),inactive
same,Potency,[3],inactive
same,"activity change, negative = inhibition",[1],inactive: 68.6% [at 5.25 µM]
CCN(Cc1cccc(S(=O)(=O)O)c1)c1ccc(C(=C2C=CC(=[N+](CC)Cc3cccc(S(=O)(=O)O)c3)C=C2)c2ccc(O)cc2S(=O)(=O)O)cc1,Potency,Furin (Homo sapiens),"inconclusive [inhibitor, partial curve, poor fit]"
same,Potency,[6],"inconclusive [inhibitor, full curve, poor fit]"
same,Potency,[1],"inconclusive [inhibitor, partial curve, poor fit]"
